# Measured values: article PMC4336329 (PLoS ONE, 2015)
# Screen size: about 310,000 compounds; about 14,000 (4.5%) showed an effect of 50% or more. The effect is printed as a negative number. The list shows a part of the results.
# Molecular target: human ether-à-go-go-related gene (hERG) potassium channel (human, UniProt Q12809)
# Experiment: primary screen, population patch clamp on CHO cells stably expressing hERG
# 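Also: peak tail current of the secondary pulse compared with the same well before compound.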
# Chain of human ether-à-go-go-related gene (hERG) potassium channel (Q12809 whole entry, looked up): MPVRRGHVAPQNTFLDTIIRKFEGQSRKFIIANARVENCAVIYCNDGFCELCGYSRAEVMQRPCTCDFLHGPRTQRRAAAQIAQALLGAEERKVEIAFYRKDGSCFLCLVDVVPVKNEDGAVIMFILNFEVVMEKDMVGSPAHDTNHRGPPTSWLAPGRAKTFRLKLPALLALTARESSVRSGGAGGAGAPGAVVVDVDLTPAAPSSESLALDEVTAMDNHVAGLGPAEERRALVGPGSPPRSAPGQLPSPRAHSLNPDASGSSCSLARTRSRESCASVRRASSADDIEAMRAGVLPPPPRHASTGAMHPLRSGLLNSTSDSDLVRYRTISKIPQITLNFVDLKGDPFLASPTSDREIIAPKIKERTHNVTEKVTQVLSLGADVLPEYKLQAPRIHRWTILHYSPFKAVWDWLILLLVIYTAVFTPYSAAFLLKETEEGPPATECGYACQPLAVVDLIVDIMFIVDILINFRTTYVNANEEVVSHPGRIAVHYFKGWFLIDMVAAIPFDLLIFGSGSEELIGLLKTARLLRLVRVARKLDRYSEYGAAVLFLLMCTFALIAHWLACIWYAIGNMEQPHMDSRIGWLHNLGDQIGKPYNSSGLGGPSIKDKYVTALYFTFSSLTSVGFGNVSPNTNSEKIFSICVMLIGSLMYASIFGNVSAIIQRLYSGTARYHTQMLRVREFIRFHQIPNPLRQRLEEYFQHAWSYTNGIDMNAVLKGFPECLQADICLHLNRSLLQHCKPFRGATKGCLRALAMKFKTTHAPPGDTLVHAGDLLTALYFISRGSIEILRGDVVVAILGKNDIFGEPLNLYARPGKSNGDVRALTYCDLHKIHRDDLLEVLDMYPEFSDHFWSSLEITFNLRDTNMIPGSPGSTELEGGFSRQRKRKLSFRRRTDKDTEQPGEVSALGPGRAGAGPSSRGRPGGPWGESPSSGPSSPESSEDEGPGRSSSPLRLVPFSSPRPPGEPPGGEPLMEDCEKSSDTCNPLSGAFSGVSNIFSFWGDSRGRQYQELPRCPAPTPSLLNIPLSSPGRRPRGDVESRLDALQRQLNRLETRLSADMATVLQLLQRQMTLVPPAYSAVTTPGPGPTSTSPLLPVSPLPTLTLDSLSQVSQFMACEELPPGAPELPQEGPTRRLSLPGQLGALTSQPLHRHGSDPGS
row,Structure (SMILES),"hERG current change (%, negative = inhibition) at 10uM [%]"
1,Cn1cnnc1SCC(=O)Nc1ccc(Cl)cc1,-3.12
2,CCSc1nc(O)cc(=O)[nH]1,14.9
3,Cc1ccc(C(=O)Nc2c(-c3cccs3)c(=O)c3ccccc3n2C)cc1,-5.26
4,O=C(NCC1CCCCC1)c1ccc(=O)[nH]c1,37.2
5,CSCc1c(C(=O)OCC(=O)NC2CCCCC2)oc2ccccc12,1.84
6,CCCn1c(N)c(C(=O)CN(C)CC(=O)Nc2cccc(F)c2)c(=O)[nH]c1=O,-75.1
7,Cc1cc(C)c(NC(=O)Nc2ccccc2C)c(Cl)c1,8.77
8,CCn1c(SCC(=O)C(C)(C)C)nnc1-c1cccnc1,-0.363
9,O=C(NC1CCSC1=O)c1ccccc1 (centres unmarked),15
10,CCN1CCN(c2nc3c(c(=O)[nH]c(=O)n3C)n2CCSc2nc3ccccc3s2)CC1,-21.6
11,CC(=O)c1ccc(NC(=O)CCNS(=O)(=O)c2cc(Br)cnc2N)cc1,11.5
12,COc1cccc(/C=N/NC(=O)c2[nH]nc3c2CCc2ccccc2-3)c1,-13
13,Cc1ccc(-c2nc(CN(Cc3c(C)nn(C)c3C)C(C)C)c(C)o2)o1,-5.04
14,CCOC(=O)N1CCN(C(=O)CCn2c(=S)[nH]c3ccsc3c2=O)CC1,18.2
15,CNC(=O)c1cc2cc(Br)ccc2s1,10.1
16,O=C(NCc1ccccc1)c1ccc(Br)cc1,8.14
17,Cc1ccnc(NS(=O)(=O)c2ccc(NC(=O)c3snnc3C)cc2)n1,20.1
18,COCCNC(=O)c1c[nH]c2ccc(S(=O)(=O)N3CCOCC3)cc2c1=O,26.1
19,CCCc1[nH]nc2c1C(c1cn[nH]c1-c1ccc(F)cc1)C(C#N)=C(N)O2 (centres unmarked),2.69
20,COc1cc(NC(=O)c2cc(OC)c(OC)c(OC)c2)cc(-n2cnnn2)c1,17.4
21,Cn1c(CCNC(=O)OC(C)(C)C)n[nH]c1=S,14
22,CC(=NCCc1c(C)[nH]c2ccc(OCc3ccccc3)cc12)C1=C(O)CC(c2ccccc2)CC1=O (centres unmarked),25.5
23,O=C(Nc1ccc(NC(=O)C2CC2)nc1)c1ccco1,4.81

row,Structure (SMILES),"hERG current change (%, negative = inhibition) at 10uM [%]"
1,CC1(C)Cc2cccc(OCC(=O)OCC(=O)c3ccccc3)c2O1,1.43
2,O=C(NCCN1CCOCC1)c1cccc(S(=O)(=O)N(Cc2ccccc2)c2ccccc2)c1,-19.3
3,O=C(NC(NC1CCS(=O)(=O)C1)C(=O)c1ccccc1)c1ccc(Cl)cc1 (centres unmarked),-51.6
4,COc1ccc(NC(=O)Cc2c(F)c(F)c(F)c(F)c2F)cc1OC,14.9
5,O=C(CN1CCN(Cc2ccc(F)cc2)CC1)NCCc1ccccc1,-13.6
6,O=C(COc1ccc2ccccc2c1)N/N=C/c1ccccn1,-17.1
7,COCCCNC(=O)Cc1c(C)c2cc3c(cc2oc1=O)OC(C)(C)CC3,7.74
8,O=C(CCCC(=O)OCC(=O)c1ccc(Cl)cc1)NC1CCCCC1,0.716
9,O=C(O)C1CC(c2ccc(F)cc2)=NO1 (centres unmarked),-0.111
10,Cc1cc(C(=O)COc2ccccc2C(N)=O)c(C)n1C1CC1,17.2
11,CC1CCc2c(sc3nc(SCC(=O)O)n(-c4ccccc4)c(=O)c23)C1 (centres unmarked),15.4
12,COC(=O)c1c(N2C(=O)CC(Sc3ccccc3C(=O)O)C2=O)sc2c1CCCC2 (centres unmarked),16.7
13,O=C(c1ccccc1Cl)N1N=C(c2cccs2)CC1c1cccc(O)c1 (centres unmarked),8.27
14,Cn1cc(S(=O)(=O)N2CCN(c3ccc(F)cc3)CC2)c(=O)n(C)c1=O,-18.7
15,Cc1cc(C(=O)COc2ccc([N+](=O)[O-])cc2)c(C)n1C1CC1,-2.41
16,N#C/C(=C1\CCCN1)c1nc(-c2ccccc2)cs1,-1.8
17,CCn1c(SCC(=O)c2ccc(Cl)cc2)nnc1-c1cccs1,-10.8
18,CC(=O)n1cc(/C=N/NC(=O)c2sc(C)nc2C)c2ccccc21,20
19,CCCC1/C(=N/O)CC(c2ccccc2)NC1c1ccccc1 (centres unmarked),21.5
20,COC(=O)C1CC(O)CN1C(=O)NC1CCCCC1 (centres unmarked),-26.4
21,CCOc1ccc(CNC(=O)CCS(=O)(=O)Cc2ccc(C)cc2)cc1OC,18.9
22,Cc1ccc(N(CC(=O)NCc2ccccc2)C(=O)c2csnn2)cc1,-4.56
23,COc1ccc(CC(=O)Nc2nnc(C)s2)cc1,9.08

row,Structure (SMILES),"hERG current change (%, negative = inhibition) at 10uM [%]"
1,OC(COc1ccc(Br)cc1)Cn1ccnc1 (centres unmarked),3.39
2,COc1ccccc1NC(=O)N1CCOCC1,21.9
3,Cc1c2c(nc3c(C(=O)NC4CCCC4)cnn13)CCCC2,-10.9
4,Cc1ccc(-n2ncc3c2CCCC3NC(=O)CSc2ccccn2)cc1C (centres unmarked),-17.2
5,S=C1NC2(CCCCC2)Nc2ccccc21,9.43
6,Cc1nnc(SCCn2c(N3CC(C)CC(C)C3)nc3c2c(=O)[nH]c(=O)n3C)s1 (centres unmarked),-0.528
7,COc1ccc(N2CCN(CCCNC(=O)C3CCN(S(=O)(=O)N4CCOCC4)CC3)CC2)cc1,-27.2
8,COc1ccc(C2=Nc3ccc(C)cc3C(c3ccccc3)N2CC(=O)NN)cc1 (centres unmarked),-23.2
9,C/C(=N\NC(=O)c1ccc(O)cc1)c1ccc2c(c1)OCCO2,3.5
10,CC(Cc1ccccc1)NC=O (centres unmarked),12.3
11,Cc1ccc(OCC(=O)NCc2ccc3c(c2)OCO3)c([N+](=O)[O-])n1,-32.4
12,O=C(Nc1ccc(-c2cnco2)cc1)c1ccc(F)cc1F,19.4
13,Cc1c(NC(=O)CSc2nnc(COc3ccccc3)n2-c2ccccc2)c(=O)n(-c2ccccc2)n1C,4.48
14,Cc1ccc(C(=O)N(c2c(C)n(C)n(-c3ccccc3)c2=O)C(C)C)cc1,-0.41
15,COc1ccc(OC)c(NC(=O)CSc2nncc(=O)n2N)c1,13.4
16,O=C(CCC1CCCC1)NNC(=O)c1ccccc1O,-14.2
17,COc1cccc(NC(=O)CN2C(=O)COc3ccc(C)cc32)c1,8.5
18,Nc1ccc(C(=O)N/N=C/c2cn(Cc3cccc(F)c3)c3ccccc23)cc1,16
19,O=C(COC(=O)c1ccc(O)cc1)Nc1cc(C(F)(F)F)ccc1Cl,-0.624
20,Cc1ccc(CSc2nc3ccccc3c(=O)n2CCCC(=O)NCc2ccco2)cc1,-2.71
21,CCOC(=O)C1(CCOc2ccccc2)CCN(CC2CC2)CC1,-47.4
22,CC(Cc1ccccc1Sc1ccccc1O)N(C)C.Cl (centres unmarked),-18.9
23,Cc1ccc(C(C)C)c(OCC(=O)NNC(=O)Cn2[nH]c(=O)c3ccccc3c2=O)c1,3.84

row,Structure (SMILES),"hERG current change (%, negative = inhibition) at 10uM [%]"
1,O=C(c1cc(-c2ccc(Cl)c(Cl)c2)on1)N1CCN(c2ccccc2)CC1,9.74
2,CC1CN=C(Nc2ccccc2)S1 (centres unmarked),7.23
3,COc1ccc(N2CCN(C(=O)c3ccc(CS(=O)Cc4ccc(Cl)cc4)o3)CC2)cc1 (centres unmarked),-50.1
4,COc1cc(C(=O)Nc2ccc3c(c2)Cc2ccccc2-3)cc(OC)c1OC,0.538
5,O=C(Nc1ccc(Cl)c(S(=O)(=O)N2CCOCC2)c1)C1CCC1,-10.4
6,Nc1nc(NCCCN2CCOCC2)nc(Nc2ccccc2)c1[N+](=O)[O-],-36.5
7,CCn1c(/N=C/c2ccc(OC)cc2O)nc2ccccc21,10.4
8,O=C(CCC1CCCN(C(=O)Cn2cnnn2)C1)NCc1ccccc1F (centres unmarked),20.1
9,O=C(O)c1ccccc1N/N=C/c1c(Sc2nnnn2-c2ccccc2)nc2ccccn2c1=O,-21.4
10,O=C(COC(=O)CCC1CCCC1)Nc1ccc(Cl)cc1F,-9.62
11,O=C(c1ccc2c(c1)OCO2)N1CCc2ccccc2C1,3.39
12,CCSc1nc2sc3c(c2c(=O)[nH]1)CCCC3,12.8
13,CCN(CC)CCOc1c(C)cccc1Cl,-47.2
14,Cc1ccc(NC(=O)CSCc2c(C)noc2C)cc1C,2.55
15,Cc1ccc(C(=O)Nc2ccon2)cc1S(=O)(=O)N1CCCCCC1,-29.7
16,CC(C)(C)NS(=O)(=O)c1ccc(NS(=O)(=O)Cc2ccccc2)cc1,6.65
17,COc1ccccc1CNC(=O)C1CC2Cn3c(nc4ccccc43)C2N1C (centres unmarked),-9.34
18,Cc1ccc(S(=O)(=O)N2CCN(C(=O)[C@H](Cc3ccccc3)NC(=O)c3ccco3)CC2)cc1C,-0.776
19,CC(C)C(NC(=O)c1ccc(C(C)(C)C)cc1)C(=O)Nc1ccc(N2CCOCC2)cc1 (centres unmarked),-20.4
20,Oc1ccc2oc3c(c2c1)CCCC3,1.39
21,O=C(OC(C(=O)Nc1cccc(C(F)(F)F)c1)c1ccccc1)C1CCCCC1 (centres unmarked),17.1
22,O=C(CNC(=O)C1CCCCC1)NCc1ccco1,11.9
23,O=C(c1ccncc1)N1CCN(S(=O)(=O)c2cccc([N+](=O)[O-])c2)CC1,-11.7
